Assay results: publication PMC4336329 (PLoS ONE, 2015)
Hit rate of the full screen: of about 310,000 compounds, about 2,200 (0.71%) showed an effect of 50% or more. The effect is printed as a negative number. Some of the results follow.

What follows are molecules tested against human ether-à-go-go-related gene (hERG) potassium channel (human, UniProt Q12809) (assay: primary screen, population patch clamp on CHO cells stably expressing hERG).
Sequence of human ether-à-go-go-related gene (hERG) potassium channel (Q12809 whole entry, looked up): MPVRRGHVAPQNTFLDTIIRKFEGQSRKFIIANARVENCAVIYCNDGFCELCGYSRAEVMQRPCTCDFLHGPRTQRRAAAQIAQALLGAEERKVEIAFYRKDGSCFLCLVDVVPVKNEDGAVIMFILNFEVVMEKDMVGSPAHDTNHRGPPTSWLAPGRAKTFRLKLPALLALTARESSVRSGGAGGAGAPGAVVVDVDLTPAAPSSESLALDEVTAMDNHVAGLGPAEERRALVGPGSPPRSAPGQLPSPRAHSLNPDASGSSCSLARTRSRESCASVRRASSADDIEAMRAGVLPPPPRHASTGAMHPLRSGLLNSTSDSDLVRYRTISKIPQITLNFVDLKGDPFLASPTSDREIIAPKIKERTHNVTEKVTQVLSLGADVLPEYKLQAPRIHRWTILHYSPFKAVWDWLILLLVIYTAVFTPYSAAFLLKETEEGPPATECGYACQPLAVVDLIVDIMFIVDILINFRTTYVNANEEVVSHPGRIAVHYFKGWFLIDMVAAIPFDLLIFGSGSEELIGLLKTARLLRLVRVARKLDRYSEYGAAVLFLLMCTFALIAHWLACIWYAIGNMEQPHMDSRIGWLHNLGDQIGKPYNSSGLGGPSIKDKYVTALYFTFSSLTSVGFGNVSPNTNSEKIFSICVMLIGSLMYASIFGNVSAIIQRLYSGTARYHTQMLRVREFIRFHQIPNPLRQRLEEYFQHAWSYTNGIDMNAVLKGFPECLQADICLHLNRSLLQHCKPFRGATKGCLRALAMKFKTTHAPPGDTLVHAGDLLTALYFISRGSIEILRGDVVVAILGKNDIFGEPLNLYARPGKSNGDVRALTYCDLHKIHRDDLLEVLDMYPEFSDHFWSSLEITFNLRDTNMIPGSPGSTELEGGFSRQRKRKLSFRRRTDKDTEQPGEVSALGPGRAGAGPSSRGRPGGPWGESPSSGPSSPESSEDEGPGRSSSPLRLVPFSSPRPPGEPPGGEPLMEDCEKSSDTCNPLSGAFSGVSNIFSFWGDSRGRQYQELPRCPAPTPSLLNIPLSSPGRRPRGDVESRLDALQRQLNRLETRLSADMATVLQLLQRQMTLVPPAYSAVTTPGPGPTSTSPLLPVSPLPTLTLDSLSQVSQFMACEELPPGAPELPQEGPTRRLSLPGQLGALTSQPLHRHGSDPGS

Row | SMILES | hERG current change (%, negative = inhibition) at 1uM [%]
1 | CC(=O)NCCSC(=O)c1ccc(F)cc1 | 9.39
2 | CCOC(=O)N1CCN(C(=O)CCc2ccc(S(=O)(=O)NC(C)(C)C)cc2)CC1 | 11.6
3 | CC(=O)N1CCN(C(=O)CN2C(=O)NC(C)(c3ccc4ccccc4c3)C2=O)CC1 (centres unmarked) | 9.92
4 | C=CCSc1nnc2n(-c3ccccc3OC)c(=O)c3c4c(sc3n12)CCC4 | -0.969
5 | O=C(Nc1ccc(Cl)cc1)N1CCN(C(=O)C2CCCO2)CC1 (centres unmarked) | 14.7
6 | O.O=P1(N(CCCl)CCCl)NCCCO1 (centres unmarked) | 15
7 | COC(=O)COc1ccc(S(=O)(=O)Nc2ccccc2SC)cc1 | -7.53
8 | O=c1c2ccccc2[nH]c(=S)n1Cc1cccs1 | -2.1
9 | Cc1cc2ccccc2c(=O)n1CC(=O)NCC(=O)N1CCN(c2ccccc2)CC1 | -0.938
10 | COc1ccc(OCC(=O)NCCCCCCNC(=O)COc2ccc(OC)cc2)cc1 | 8.53
11 | Cc1cccc(C(=O)NCCCNC(=O)c2ccccn2)c1 | 21.5
12 | CCOc1ccc(S(=O)(=O)N2CCCC(C(=O)NCc3ccccn3)C2)cc1Cl (centres unmarked) | 1.48
13 | Cc1cccc(N2CCN(C(=O)N3CCOCC3)CC2)c1C | 10.2
14 | O=C(CCNC(=O)c1ccco1)Nc1ccc(Cl)c(C(F)(F)F)c1 | 10.5
15 | NC(=S)NN=C1C2CC3CC(C2)CC1C3 | 1.69
16 | COc1cc(/C=C(\C#N)C(=O)NCC2CCCO2)ccc1O (centres unmarked) | -2.15
17 | Nn1c(SCC(=O)NCCCc2ccccc2)nnc1-c1cccnc1 | 9.27
18 | CCOC(=O)C1=C(COC(=O)/C=C/c2cccc(Br)c2)NC(=O)NC1C (centres unmarked) | -7.77
19 | Cc1cc(OC(C)C(=O)N(Cc2cccs2)C2CCS(=O)(=O)C2)ccc1Cl (centres unmarked) | 4.5
20 | CS(=O)(=O)NC1CCN(Cc2ccccc2)CC1 | -0.401
21 | CC(=O)N1CCN(Cc2nc3cc(NC(=O)c4ccc(Cl)cc4)ccc3n2C)CC1 | -12.9
22 | C=CCn1c(N)c(-c2nc3ccccc3n2C)sc1=S | 7.71
23 | O=C(CS(=O)CC(=O)N(c1cccc(F)c1)C(C(=O)NC1CCCCC1)c1ccco1)Nc1ccc(F)cc1 (centres unmarked) | 5.02

Row | SMILES | hERG current change (%, negative = inhibition) at 1uM [%]
24 | CCC(C)(C)NC(=O)C(c1ccncc1)N(C(=O)c1sc(C)nc1C)c1ccc(F)cc1 (centres unmarked) | 7.8
25 | Cn1c(=O)c2c(nc(Oc3ccccc3Cl)n2C)n(C)c1=O | 11.6
26 | Cc1cc(=O)[nH]c(NN)n1 | 6.74
27 | COC(=O)c1cn(S(=O)(=O)c2ccccc2)c2ccccc12 | 13
28 | CCN(CC)S(=O)(=O)c1ccc(N2CCN(C)CC2)c(NC(=O)c2cc(=O)c3ccccc3o2)c1 | 0.504
29 | COc1ccc(N2CCN(C(=O)CCS(=O)(=O)c3ccc4c(c3)CCN4C(=O)C3CC3)CC2)cc1 | 7.86
30 | O=C(Nc1sccc1C(=O)NCc1ccco1)c1cccnc1 | 9.91
31 | Cc1cc(C)cc(NC(=O)Cn2nnc(C(=O)NCc3ccc(F)cc3)c2N)c1 | 13.3
32 | Fc1ccccc1NC(=S)N(CCN1CCCCCC1)Cc1cccs1 | -2.49
33 | COCC(C)NC(=O)CCSc1nc(-c2ccc(OC)cc2)cc(C(F)(F)F)n1 (centres unmarked) | 9.5
34 | CC(C)C1=Nc2cccc3cccc(c23)N1.Cl | 9.04
35 | COc1ccc(CNCc2ccncc2)cc1OC.Cl | 12.7
36 | Nc1ccc(C(=O)OCc2csc(-c3ccccc3)n2)cc1[N+](=O)[O-] | 15
37 | COc1ccc(NS(=O)(=O)c2ccc(N3CCOCC3)c(N)c2)cc1 | -0.916
38 | Cc1ccc(NC(=O)C2CCCN(c3ncnc4c3nc3n4CCCCC3)C2)nc1 (centres unmarked) | -14.5
39 | CC1(C)CC2(CCO1)OC(=O)CC2C(=O)Nc1c(Cl)cccc1Cl (centres unmarked) | 8.72
40 | O=C(CC1CCCCC1)N=C1SC2CS(=O)(=O)CC2N1c1ccccc1 (centres unmarked) | 7.25
41 | CN(CC(=O)Nc1ccccc1F)Cc1cccs1 | 18.1
42 | CCOC(=O)Cc1csc(NC(=O)Nc2ccc(OC(F)(F)F)cc2)n1 | 17.3
43 | CC(=Nc1ccc(C)cc1)c1sc2ccccc2c1O | 11.9
44 | CCC(C(=O)NC1CCCCC1)n1c(SCc2cccc(C)c2)nc2ccncc21 (centres unmarked) | 7.82
45 | Cc1ccc([C@@H]2CC=C(C(=O)O)[C@H](c3ccc(F)cc3)N2S(=O)(=O)c2ccc(C)cc2)cc1 | 12.6
46 | COC(=O)C1=C(C)NC(C)=C(C(=O)OC)C1C(=O)OCc1nc2cc(C(=O)OC)ccc2c(=O)[nH]1 | -5.17

Row | SMILES | hERG current change (%, negative = inhibition) at 1uM [%]
47 | COc1ccc(NC(=O)/C(=C\c2ccncc2)NC(=O)c2ccccc2)cc1 | 1.44
48 | Cc1sc2ncn(CC(=O)NCCCC(=O)N3CCC4(CC3)OCCO4)c(=O)c2c1C | 10.7
49 | Cc1ccc(Cn2c(N3CCN(CCO)CC3)nc3c2c(=O)n(C)c(=O)n3C)cc1 | 7.9
50 | O=c1nc(C(F)(F)F)nc2ccccn12 | -2.42
51 | O=C(c1ccccc1)N1CCN(S(=O)(=O)c2cccc(NS(=O)(=O)c3ccccc3)c2)CC1 | 12.4
52 | Cc1ccc2c(c1)cc(CN(Cc1ccco1)C(=O)COc1ccccc1)c1nnnn12 | 10.3
53 | CCOC(=O)c1c(Nc2ccc(Cl)cc2)sc(/C=C2\C=Nc3ccccc32)c1O | 6.89
54 | CC(C)(C)NC(=O)CSCc1c(Cl)cccc1Cl | -8.75
55 | N#CCCN(Cc1ccccc1)C(=S)Nc1ccc(F)cc1 | 12.8
56 | Cc1nn(Cc2ccccc2)c(C)c1C=C1C(=O)NC(=O)NC1=O | 10.3
57 | NC1=NC(=O)C(Cc2cccc(Cl)c2Cl)S1 (centres unmarked) | 16.3
58 | CCCNc1nc2c(c(=O)n(C)c(=O)n2C)n1CCCc1ccccc1 | 3.11
59 | COc1ccc(OC)c(S(=O)(=O)N2CCC(C(=O)N3CCOCC3)CC2)c1 | 18.9
60 | CSc1nsc(SCC(=O)Nc2ccc(C(=O)O)cc2)n1 | 9.92
61 | CN(CC1CCCN(CCc2cccc(C(F)(F)F)c2)C1)C(=O)c1ccco1 (centres unmarked) | -38.3
62 | Cc1nnc(N2C(=O)c3ccc(Br)cc3C2=O)s1 | 13.7
63 | CCCOc1ccc(N2C(=O)C/C(=C\c3ccccc3)C2=O)cc1 | 15.7
64 | COc1ccc(O)c(/C=N/NC(=O)c2cccc(N3CCCC3=O)c2)c1 | 8.99
65 | COc1ccccc1NC(=O)CN1CCN(C(=O)C2CCCO2)CC1 (centres unmarked) | 14.1
66 | Cc1ccc(-c2noc(-c3ccccc3C(=O)NCC3CCCO3)n2)cc1 (centres unmarked) | 8.44
67 | COc1ccccc1Oc1ccc2c(c1)C(=O)N(c1ccccc1)C2=O | 1.54
68 | COc1cc(S(=O)(=O)Nc2cccc(C)c2)ccc1NC(=O)c1cccnc1 | 17.2
69 | O=C(Cn1c2[n+](c3ccc(C(F)(F)F)cc31)CCCCC2)Nc1ccc(Br)cc1.[Cl-] | 20.4

Row | SMILES | hERG current change (%, negative = inhibition) at 1uM [%]
70 | COc1ccc(C(C(=O)NC2CCCCC2)N2CCC3(CC2)OCCO3)cc1 (centres unmarked) | 3.92
71 | O=c1[nH]cnc2c([N+](=O)[O-])cccc12 | 7.63
72 | CC(=O)Nc1ccc(OS(=O)(=O)c2ccc(C)cc2C)cc1 | 5.66
73 | Cc1cccc(NC(=O)C2CC(=O)OC23CCCCC3)c1 (centres unmarked) | 2.56
74 | CC(C)CCNC(=O)CCCC1=NS(=O)(=O)c2ccccc2N1 | 3.78
75 | Cc1cc(NC(=O)CSc2nc3cc(C(=O)NCCCOC(C)C)ccc3c(=O)n2Cc2ccco2)no1 | 10.4
76 | Cc1ccsc1/C=C1\C(=O)NC(=S)N(C)C1=O | 14.8
77 | Cc1nnc(Nc2ccc3c(c2)OCO3)c2ccccc12 | 11.8
78 | CN(C)CCNC(=O)/C(=C/c1ccc(-c2cccc(Cl)c2)o1)NC(=O)c1ccccc1 | -31.4
79 | CNC(=O)O/N=C(\N)Cc1csc2ccc(Cl)cc12 | 5.45
80 | O=C(Cc1cccs1)NNC(=S)NCc1ccc(Cl)cc1 | 11.5
81 | COC(=O)c1c(NS(=O)(=O)c2ccc3ccccc3c2)sc2c1CCCC2 | 1.93
82 | CCN(CC)CCNC(=O)Cc1nn(Cc2ccccc2)c(=O)c2ccccc12 | -9.36
83 | CC(=O)Cn1nnc(-c2ccc(C(F)(F)F)cc2)n1 | 0.918
84 | CCOc1ncccc1C(=O)OCc1cccc([N+](=O)[O-])c1 | 13
85 | Cc1cc(C)cc(C(=O)NCCCN2CCOCC2)c1 | 17.7
86 | COC(=O)c1ccc(C23CC4(C2)[C@H](CN(CC2CCCCC2)[C@@H]4c2ccccc2)C3c2ccc(Cl)nc2)cc1 (some centres unmarked) | 15.8
87 | CC(OC(=O)c1ccc2c(=O)n3c(nc2c1)CCC3)C(=O)NC1CCCCC1C (centres unmarked) | 13.8
88 | FC(F)(F)c1nnc(-c2ccccc2)nc1Sc1ccccc1 | 7.7
89 | Cc1c(C(=O)OC(C)C)[nH]c2c1C(=O)CC(C)(C)C2 | 7.48
